# Reference: the supplement of paper PMC3334620
# Over roughly 33,000 sequences, “E-score (-0.5 to 0.5)” has its median near -0.016; the highest 2% begin near 0.32. Some of the results follow.
# Biological target: T1, Stp1 (UniProt B3LFK1)
# T1 sequence: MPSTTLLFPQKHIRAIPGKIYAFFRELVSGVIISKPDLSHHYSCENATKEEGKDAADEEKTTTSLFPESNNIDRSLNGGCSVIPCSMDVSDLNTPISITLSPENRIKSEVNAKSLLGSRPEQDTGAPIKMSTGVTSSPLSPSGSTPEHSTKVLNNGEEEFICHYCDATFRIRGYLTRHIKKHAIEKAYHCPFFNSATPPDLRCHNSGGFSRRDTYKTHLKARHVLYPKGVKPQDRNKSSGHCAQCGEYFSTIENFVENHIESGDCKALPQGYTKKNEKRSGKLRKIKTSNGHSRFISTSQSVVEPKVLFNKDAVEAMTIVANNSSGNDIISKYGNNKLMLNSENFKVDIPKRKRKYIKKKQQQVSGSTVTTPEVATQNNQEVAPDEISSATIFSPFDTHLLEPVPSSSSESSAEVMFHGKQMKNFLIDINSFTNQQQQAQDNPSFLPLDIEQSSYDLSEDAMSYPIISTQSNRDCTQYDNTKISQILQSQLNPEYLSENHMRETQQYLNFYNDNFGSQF
# Assay: PBM E-score (8-mer binding enrichment) (E-score (-0.5 to 0.5)); higher = stronger / more preferred TF binding; most listed sequences are background and not binding sites
# Conditions: protein concentration: 200 nM; construct: GST-full length
# Summary of the method: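 Yeast transcription factors carrying a GST tag, as full-length proteins or DNA-binding domains, were produced by PURExpress in vitro transcription/translation. About 100-200 nM protein was applied to universal all-10-mer Agilent arrays, double-stranded by primer extension on fresh or once-stripped slides. Bound protein was detected with fluorescent anti-GST, and scans were normalised with masliner. The Universal PBM Analysis Suite gave each ungapped eight-base word, pooled with its reverse complement, an E-score, a modified Wilcoxon-Mann-Whitney statistic.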
row,Sequence,PBM E-score
1,GTCAACAC,-0.0264
2,CAGCTGTA,-0.112
3,TATTCGAA,-0.11
4,CACCGGTA,-0.0908
5,GTACGCAC,-0.0915
6,GAGTCCAA,-0.0353
7,AATAGAAT,0.115
8,GGTACACC,-0.164
9,ATCACTAG,-0.108
10,CCATCGTC,-0.0307
11,CACTGGTA,-0.0447
12,AGCAGGCT,-0.098
13,CCAGAACG,0.184
14,ACCGGTCA,-0.132
15,ATCGCCCG,-0.07
16,ACTGTCAA,0.0309
17,ATGGTGCA,-0.0786
18,CTTGAGTC,-0.198
19,ATAGAGCG,-0.0336
20,TACCGTGA,0.0845
21,GAGACGGA,0.065
22,CTTACATC,-0.0207
23,AATTGCCC,0.0223
24,ACTTCTCT,-0.0547
25,CTGACTTA,0.0141

row,Sequence,PBM E-score
1,GGTCTACA,-0.0389
2,AAAGCTCG,-0.0977
3,GTAAATGA,0.0553
4,ACTAATAT,0.139
5,AACGCAAC,0.166
6,ATCGGTCG,0.00039
7,GGCACCAA,0.393
8,ATTCGGAC,0.179
9,GATGTAGA,-0.00979
10,GTTGGTGA,-0.0662
11,ATTTGAGG,0.0129
12,GGTCACTA,-0.208
13,CAGATGGC,0.144
14,CATATGGC,0.207
15,ACATGAAA,-0.121
16,CGGGACAA,-0.107
17,AATTACAT,0.0379
18,TGCGACCA,0.0362
19,GGCTCCGA,-0.00311
20,AAATGTGC,0.183
21,AAGAACCA,-0.0227
22,AATACGCT,-0.182
23,AATTCAGT,-0.0742
24,CAGGGAAC,-0.0813
25,AGCCAAAG,-0.00729

row,Sequence,PBM E-score
1,TCTCGGAA,0.00252
2,CATTCGAG,0.0306
3,AATTAAGG,-0.182
4,CCGTGTGA,0.303
5,CGTGCAGA,0.0736
6,AAAGAAGT,0.0744
7,ACTGAGCA,-0.16
8,ATGGGGGA,-0.364
9,CAACTTGA,0.16
10,GTCGATAA,0.0626
11,AGATGGAC,-0.0364
12,ATTCGGTA,0.151
13,GACTCATC,-0.209
14,CAGGTGCC,0.127
15,ACGCACGG,0.419
16,AAACCTAA,-0.0315
17,GAAGAACA,0.0998
18,ACAGGAAG,0.147
19,CCAACAAA,0.167
20,ACACAGCT,-0.203
21,TAGGTGCA,-0.227
22,AACGAATT,0.0401
23,GAAGATTA,0.0958
24,TCATCACA,-0.0752
25,GATTTCTA,0.168

row,Sequence,PBM E-score
1,AGTTGACC,-0.0773
2,CCAGAGAC,-0.19
3,CATTGCAG,0.0465
4,CGACGGTA,0.015
5,CGAGAGGA,-0.0592
6,ATAGCTAG,-0.182
7,GTCAAGGA,-0.146
8,CCCAGCAA,-0.132
9,GCTAACCC,-0.212
10,CTTTGGGC,-0.0803
11,CAACGCTA,0.0424
12,CGCAACCA,-0.154
13,AATGCGCT,-0.199
14,ACGAATGG,0.0871
15,CTGTGGCC,0.0391
16,AGCTGTTC,-0.167
17,CAATTAAG,0.0879
18,AAACAGGT,0.0641
19,AAAGCAAA,0.229
20,CACCCATC,-0.13
21,GACCGTGA,-0.0295
22,CTATAAAG,-0.0418
23,GATTTGCC,0.219
24,AGCTACCA,-0.228
25,AATCAGGT,0.22

row,Sequence,PBM E-score
1,TCAACTCA,-0.123
2,GAGCCAAA,-0.0536
3,AATCTCCC,-0.268
4,AAGTTCAA,0.0913
5,ATGCAAGG,-0.0396
6,AAAATATA,0.192
7,AGTTTGGA,0.0815
8,GCCGCACA,0.452
9,ATATAACC,-0.13
10,GCAGCCCA,-0.213
11,AAACCTAG,-0.137
12,CCCTTTGA,-0.117
13,AAGAAGGG,-0.162
14,GGAAGAAA,0.126
15,TAGGGACA,-0.0441
16,GCCAGGAC,-0.195
17,AACAGCTA,-0.0534
18,GAAGAGAC,0.0735
19,CACAACCC,-0.22
20,CATTTAGC,0.134
21,GTAGAAGA,-0.131
22,AATACGAA,0.158
23,CCGCCCTA,-0.041
24,CCATATAA,0.134
25,AGCGTGCG,0.237

row,Sequence,PBM E-score
1,AACTGATT,-0.116
2,GGAAGACC,-0.313
3,ACGCCGAT,0.23
4,GAGCGTAA,0.0231
5,AGCCAACT,-0.143
6,AGTATACT,-0.203
7,CACCGGGA,-0.221
8,ATTAGAAA,0.0859
9,GCAAAGGC,0.188
10,CACATAAG,-0.01
11,ACGCTCTA,-0.189
12,CTTTCCCA,-0.0508
13,CGCTGCGA,-0.0861
14,GGTGCCAC,0.156
15,TAATGATA,0.232
16,AAAATGAT,0.142
17,AAAGTTGG,-0.0678
18,AGCGTAAC,0.0577
19,GACGAGTC,-0.0923
20,CCGTTACG,0.046
21,CTAAGTAA,0.107
22,ACGTAACG,-0.0448
23,AGGCACCT,0.135
24,AATCTGCT,0.0271
25,AGGTTGCC,-0.0941

row,Sequence,PBM E-score
1,CTCAATCA,0.0902
2,CCTGGCCC,-0.0193
3,AGCGCAAG,-0.14
4,AGTGGGTC,-0.115
5,CTCCGTCA,-0.191
6,CGGTGTCA,-0.213
7,ACTAGATG,0.125
8,GAATGAAA,0.126
9,CTTATAAG,0.151
10,AATTTGTC,-0.0333
11,ATGCTCTA,0.108
12,CGGGTGAG,-0.0991
13,TATAAGAA,-0.059
14,CCTGCCAC,0.19
15,TCCGACAA,0.0357
16,CTTTTCGC,0.229
17,TCAAAACA,0.119
18,AACGTAGA,0.0213
19,CTCTTGCC,-0.0358
20,ATCCGCAA,0.00147
21,CAACTCCG,-0.137
22,AGCTAAGC,-0.118
